# According to PMC4336329 (PLoS ONE, 2015):
# Screen size: about 310,000 compounds; about 14,000 (4.5%) showed an effect of 50% or more. Effects have a minus sign here. The list shows a part of the results.
# Target: human ether-à-go-go-related gene (hERG) potassium channel (human, UniProt Q12809)
# Assay: primary screen, population patch clamp on CHO cells stably expressing hERG
# 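Further: peak tail current of the secondary pulse compared with the same well before compound.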
# Chain of human ether-à-go-go-related gene (hERG) potassium channel (Q12809 whole entry, looked up): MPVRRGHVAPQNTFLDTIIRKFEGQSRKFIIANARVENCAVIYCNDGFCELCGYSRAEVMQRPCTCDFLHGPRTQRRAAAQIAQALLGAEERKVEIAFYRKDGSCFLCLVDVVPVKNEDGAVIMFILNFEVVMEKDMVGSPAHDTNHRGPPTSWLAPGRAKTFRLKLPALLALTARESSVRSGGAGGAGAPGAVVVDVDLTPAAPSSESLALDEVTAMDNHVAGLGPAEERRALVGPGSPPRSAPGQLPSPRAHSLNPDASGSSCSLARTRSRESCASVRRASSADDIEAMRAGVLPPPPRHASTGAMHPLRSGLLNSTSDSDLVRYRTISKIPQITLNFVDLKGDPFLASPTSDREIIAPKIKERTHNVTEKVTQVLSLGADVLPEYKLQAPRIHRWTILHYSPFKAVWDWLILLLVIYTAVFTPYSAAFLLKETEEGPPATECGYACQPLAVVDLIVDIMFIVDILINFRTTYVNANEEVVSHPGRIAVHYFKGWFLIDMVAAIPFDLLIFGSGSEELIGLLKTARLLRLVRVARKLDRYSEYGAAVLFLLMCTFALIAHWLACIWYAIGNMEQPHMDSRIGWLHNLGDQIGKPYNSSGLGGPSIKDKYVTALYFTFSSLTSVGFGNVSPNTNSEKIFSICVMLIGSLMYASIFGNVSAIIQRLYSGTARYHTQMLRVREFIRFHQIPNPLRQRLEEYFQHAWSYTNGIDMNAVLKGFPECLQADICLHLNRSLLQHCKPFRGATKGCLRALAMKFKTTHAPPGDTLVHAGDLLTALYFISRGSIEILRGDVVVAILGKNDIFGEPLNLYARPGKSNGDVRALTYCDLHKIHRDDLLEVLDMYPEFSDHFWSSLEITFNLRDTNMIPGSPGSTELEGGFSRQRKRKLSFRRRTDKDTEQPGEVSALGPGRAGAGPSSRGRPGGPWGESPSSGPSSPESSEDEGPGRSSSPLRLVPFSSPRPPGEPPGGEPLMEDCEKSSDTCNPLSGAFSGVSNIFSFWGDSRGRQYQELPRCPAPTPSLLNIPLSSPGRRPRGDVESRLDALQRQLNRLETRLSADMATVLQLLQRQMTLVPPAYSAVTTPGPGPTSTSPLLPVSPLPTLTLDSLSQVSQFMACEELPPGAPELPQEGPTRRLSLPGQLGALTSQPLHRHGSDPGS
row,Compound,"hERG current change (%, negative = inhibition) at 10uM"
1,O=C1CCC([N+](=O)[O-])C(c2ccc(-c3ccccc3)cc2)N1 (stereo not drawn),-11.3%
2,Cc1nc2ccccc2n1CCOc1ccc([N+](=O)[O-])cc1,-73.8%
3,O=C(Cn1nnc(-c2ccccc2Cl)n1)N1CCCCC1,0.255%
4,Cc1cc(C(F)F)n2nc(C(=O)NCc3ccccc3F)nc2n1,8.17%
5,O=C(OCc1ccc([N+](=O)[O-])cc1)c1cc2ccccc2oc1=O,-0.805%
6,O=C(CCc1ccc(S(=O)(=O)NC2CCCCC2)cc1)NCc1ccc(Cl)cc1,4.7%
7,C(=C\c1ccco1)/c1ccc2ccccc2n1,-16%
8,O=C1CSC(c2cccnc2)N1c1ccc(F)cc1 (stereo not drawn),-1.6%
9,Cc1nc2scc(C)n2c(=O)c1S(=O)(=O)N1CCN(c2ccccn2)CC1,-2.3%
10,COc1ccc(/C=N/NC(=O)Cn2nnc3ccccc32)cc1OC,-20%
11,N#CCCN(C(=O)COC(=O)COc1ccc(Cl)cc1)c1ccccc1,7.9%
12,CCOC(=O)N1CCN(C(=O)c2c(-c3ccccc3Cl)noc2C)CC1,17.5%
13,COc1ccc(NC(=O)c2ccccc2SC)cc1OC,-6.67%
14,Cc1ccc(NC(=O)CCC(=O)N/N=C/c2coc3ccc(F)cc3c2=O)cc1,-8.9%
15,COc1cc(/C=C(/C#N)C(=O)Nc2ccccc2)ccc1OCc1ccc(C(=O)O)cc1,3.98%
16,COC(=O)c1cc(C(=O)OC)cc(-n2c(C)cc(C(=O)COC(=O)CNS(=O)(=O)c3ccc(C)cc3)c2C)c1,-7.5%
17,CCNC(=O)c1c(C)nc2ccccn12,-5.31%
18,O=C(NCc1ccc2c(c1)OCO2)c1ccc(COc2cc(Cl)ccc2Cl)o1,11.7%
19,O=C(COC(=O)C1CCC(N2C(=O)C3C4CCC(C4)C3C2=O)CC1)c1ccc(F)cc1 (stereo not drawn),0.93%
20,CN1CCN(S(=O)(=O)c2cccc(C(=O)NCc3ccc(Cl)cc3)c2)CC1,-16.5%
21,O=C(Nc1ccc2[nH]c(=O)[nH]c2c1)c1c(F)c(F)c(F)c(F)c1F,14.2%
22,CCCC(=O)NC(=S)Nc1ccc(Cl)cn1,13.3%
23,N#CCCN(C(=O)COC(=O)CCc1c[nH]c2ccccc12)c1ccc(F)cc1,-3.93%
24,COC(=O)c1ccccc1OCC(=O)N1CCN(c2ccc(Cl)cc2)CC1,-6.69%
25,COC(=O)/C=C1/S/C(=N/NC(=O)c2ccccc2C)NC1=O,7.46%
26,COc1ccccc1CNC(=O)COC(=O)c1ccc([N+](=O)[O-])o1,-2.08%
27,COC(=O)c1nnn(CC(=O)Nc2cccc(Cl)c2)c1C(=O)OC,-0.0399%

row,Compound,"hERG current change (%, negative = inhibition) at 10uM"
1,Cc1ccnc(NS(=O)(=O)c2ccc(NC(=O)CN3C(=O)c4ccccc4S3(=O)=O)cc2)n1,2.45%
2,N#Cc1ccccc1S(=O)(=O)N1CCN(C(=O)CCc2ccccc2)CC1,-15.1%
3,COc1ccc(CCNC(=O)C2CCN(S(=O)(=O)N3CCCCCC3)CC2)cc1OC,-8.6%
4,COc1ccc(CN2C[C@H](Cc3ccccc3)[C@@H](CC(=O)Nc3ccccc3)C2=O)cc1,-10.5%
5,CCCC1(C(=O)O)NC(c2ccccc2O)C2C(=O)N(Cc3ccccc3)C(=O)C21 (stereo not drawn),0.298%
6,O=C(NCC1(c2ccccc2)CCCC1)c1ccccc1Br,5.78%
7,Cc1nonc1NC(=O)CSc1nc(C23CC4CC(CC(C4)C2)C3)nc2ccccc12,12.6%
8,CCCCn1c(N)c(N(CCOC)C(=O)CN(C)S(=O)(=O)c2ccc(F)cc2)c(=O)[nH]c1=O,5.39%
9,CCOCCN1CCN(C2c3ccccc3CSc3ccccc32)CC1.O=C(O)C(=O)O (stereo not drawn),-30.3%
10,Cc1cccc(Nc2nc(N)nc(CN3CCN(c4ccc(F)cc4)CC3)n2)c1,-73.3%
11,COc1ccc(N2CCN(Cc3nc4c(c(=O)n(C)c(=O)n4C)n3Cc3cccc(C)c3)CC2)cc1,-52.3%
12,COc1cccc(/C=C/C(=O)NCc2cn3cc(Cl)ccc3n2)c1,12.5%
13,COc1ccc(/C=C(\C#N)C(=O)NC2CCS(=O)(=O)C2)cc1OC (stereo not drawn),17.4%
14,COc1cc(C(=O)Nc2ccc3c(c2)OCCO3)c(-n2cnnn2)cc1OC,-4.59%
15,COC(=O)c1cc(/C=C/c2ccccc2)on1,1.37%
16,C/C(=N\Nc1nccnc1Cl)c1ccc(O)c(C)c1,11.4%
17,CSc1ccccc1OC1CCN(Cc2ccccc2)CC1.Cl,-24.3%
18,CCOC(=O)CC1=NN(c2ccccc2)C(=O)/C1=C\c1ccc(N(C)C)cc1,24.6%
19,O=C1CSC(c2ccccc2O)N1Cc1ccccc1 (stereo not drawn),-3.34%
20,CC(/C=N/NC(=O)CSc1ccccn1)=C\c1ccc(C(C)C)cc1,-9.1%
21,COCCN1C(=O)N(C)[C@@H](c2ccccc2)C(C(C)=O)=C1C,2.37%
22,CCCNC(=O)Cn1nc([N+](=O)[O-])c([N+](=O)[O-])c1C,13.7%
23,CCOc1ccc(NC(=O)CCC(=O)NNC(=O)Nc2cccc(Cl)c2)cc1,20.7%
24,O=C(CCNC(=O)C1CCN(S(=O)(=O)c2ccc(F)cc2)CC1)Nc1nccs1,15.5%
25,O=c1[nH]c2ccc(NC(=S)Nc3ccccc3Cl)cc2[nH]1,2.03%
26,CCn1cc(C(=O)NCCCN(CC(C)C)CC(C)C)c(=O)c2cc(S(=O)(=O)N3CCOCC3)ccc21,-11.3%
27,Cc1c(/C=N/NC(=O)CNc2ccccc2)c2ccccn2c1C(=O)c1ccc(Cl)cc1,6.9%
